# Laboratory results: PubChem BioAssay (NCATS)
# Inconclusive results, whose numbers are uncertain, are shown with a selection of clear calls. A call without a number means that no potency is given here. For some assays here: Potencies beside an inconclusive call are fits to weak or partial responses and may not hold up. The source made the active and inactive calls. Unless noted, the call rests on the fitted dose curve; in most records, active means well fitted curve in the direction sought with a large enough effect; inconclusive means small, poorly fitted or top-dose-only effect, or another doubt; inactive means no such curve, though single readings can be large; an effect the other way counts as inactive or inconclusive.
# Key:
# [1] = P-glycoprotein substrates identified in KB-8-5-11 adenocarcinoma cell line, qHTS therapeutic library screen (AID 1346987); further: nearly all actives have a fitted effect of over 65% in size; further: potency means the concentration at half of the fitted maximal effect
# In short: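 Steps: plate 500 KB-8-5-11 cells/well in DMEM + 10% FCS (colchicine removed); pin compounds in dose-response; incubate 72 h, 37 degree C, 5% CO2; add CellTiter-Glo, 5 min; read luminescence.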
# [2] = molecular target: Tyrosine-protein phosphatase non-receptor type substrate 1 (Homo sapiens) + Leukocyte surface antigen CD47 (Homo sapiens) (UniProt P78324+Q08722); assay: CD47-SIRPalpha protein protein interaction - HTRF assay qHTS validation (AID 1347058; active means well fitted curve in the direction sought with a large enough effect in the signal ratio, not every such curve was filed as active; inconclusive means small, poorly fitted or top-dose-only effect, or effect the other way, or a change in a side signal; inactive means no such curve, though single readings can be large or run the other way; the % refers to the signal ratio;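 further: recombinant soluble extracellular CD47 with His tag and biotinylated SIRPalpha domains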)
# Sequence of UniProt P78324 (P78324 whole entry, looked up, the tested form may be a part): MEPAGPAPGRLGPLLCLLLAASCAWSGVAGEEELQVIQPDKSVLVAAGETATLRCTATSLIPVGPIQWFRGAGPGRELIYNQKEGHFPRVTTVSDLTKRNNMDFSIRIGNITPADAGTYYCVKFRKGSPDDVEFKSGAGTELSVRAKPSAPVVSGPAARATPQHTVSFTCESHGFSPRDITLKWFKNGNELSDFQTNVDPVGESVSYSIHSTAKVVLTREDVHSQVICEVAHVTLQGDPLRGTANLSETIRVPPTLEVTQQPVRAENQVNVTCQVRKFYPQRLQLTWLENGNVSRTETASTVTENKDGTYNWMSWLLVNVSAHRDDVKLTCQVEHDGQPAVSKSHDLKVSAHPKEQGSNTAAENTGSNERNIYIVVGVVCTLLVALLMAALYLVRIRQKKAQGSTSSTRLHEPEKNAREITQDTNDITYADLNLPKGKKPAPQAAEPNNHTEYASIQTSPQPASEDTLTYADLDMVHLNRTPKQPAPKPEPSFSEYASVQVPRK
# Sequence of UniProt P78324 (Q08722 whole entry, looked up, the tested form may be a part): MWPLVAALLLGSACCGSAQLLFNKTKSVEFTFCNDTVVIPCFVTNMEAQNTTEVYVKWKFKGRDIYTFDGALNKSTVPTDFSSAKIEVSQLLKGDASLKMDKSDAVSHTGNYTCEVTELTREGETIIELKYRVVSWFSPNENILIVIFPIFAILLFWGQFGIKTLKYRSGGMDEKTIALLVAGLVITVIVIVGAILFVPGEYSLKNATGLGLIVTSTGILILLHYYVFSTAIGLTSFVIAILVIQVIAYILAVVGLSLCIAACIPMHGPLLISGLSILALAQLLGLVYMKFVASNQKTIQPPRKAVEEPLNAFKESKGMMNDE
# In short: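 TR-FRET read (Ch1/Ch2 ratio) of soluble extracellular CD47 and Avi-biotinylated SIRPalpha domains in PBS pH 7.4 with 0.05% IGEPAL; 7-point compound titration. Sequential 30 min room-temperature steps; non-biotinylated SIRPalpha as control inhibitor.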
# [3] = Primary qHTS for inhibitors of nuclear receptor binding SET domain protein 2 (NSD2) in an isogenic RCH-ACV NSD2 p.E1099K mutant (9B) (AID 1645876); further: nearly all actives have a fitted effect of over 70% in size
# [4] = Primary fluorescence-based thiol-reactive (MSTI) qHTS assay for identification of artifact compounds. (AID 1845221); further: potency means the concentration at half of the fitted maximal effect;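 further: thiol-reactive compounds lower the probe fluorescence signal; nearly all actives have a fitted effect of over 65% in size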
# In short: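 First, 4 uM MSTI in 2% DMSO/PBS pH 7.4 was dispensed; next, compounds were added; then plates sat 1 h at room temperature without light. Finally, emission at 598 nm was recorded.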
# CRL-7250 = normal cell line; assay: Cytotoxic Profiling of Annotated Libraries Using Quantitative High-Throughput Screening (AID 1296008); details: Five cell lines viability, CellTiter-Glo ATP luminescence, 48-72 h; max response: hits give low values; further: nearly all actives have a fitted effect of over 60% in size; further: potency means the concentration at half of the fitted maximal effect
# In short: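 Cytotoxicity was measured as CellTiter-Glo ATP luminescence, read after 10 min at room temperature. Compound treatment of the cells lasted 48 or 72 hr at 37 degrees Celsius in a qHTS format.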
# SKOV3 = assay: Primary qHTS to identify gynecologic anti-cancer compounds using libraries of approved drugs and bioactive compounds (AID 1345084); details: Gynecologic cancer cell panel viability, ATPlite luminescence, 48 h; series mostly up to 57.5 µM; further: nearly all actives have a fitted effect of over 55% in size; further: potency means the concentration at half of the fitted maximal effect
# In short: (§1)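 48 h compound exposure at 37 C, 5% CO2; five-point qHTS. ATPlite luminescence readout of cell ATP.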
# [5] = test system: Zika virus NS2B-NS3 protease (unlinked complex); assay: Primary screen GU Rhodamine qHTS for Zika virus inhibitors: Unlinked NS2B-NS3 protease assay (AID 1347159); further: nearly all actives have a fitted effect of over 60% in size
# In short: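 Compounds, tested up to 114 microM, were incubated for 15 minutes with 25 nM unlinked NS2B-NS3 protease at pH 8.0. Cleavage of 1.5 microM Rhodamine110 substrate was then followed by fluorescence for 15 minutes.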
# [6] = Primary redox qHTS assay for identification of artifact compounds. (AID 1845223); details: Amplex Red/HRP redox cycling with DTT, fluorescence; redox activity (% of DA3003): at 53.8 µM (top of the series); further: potency means the concentration at half of the fitted maximal effect
# In short: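 Amplex Red (25 uM) and HRP (250 mU/mL) in HBSS, with compounds for 15 min, then 250 uM DTT for 30 min, room temperature, dark. Fluorescence 525/598 nm read; normalized to DMSO and 10 uM DA3003; Hill fit.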
# [7] = qHTS of pediatric cancer cell lines to identify multiple opportunities for drug repurposing: Primary screen for NB-EBc1 cells (AID 1347095)
# In short: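 Cells seeded at 500-1,000 cells/well in growth media, rested 5 hours at 37 degrees C, 5% CO2, then dosed; MIPE compounds at 11-point (from 0.78 nM) and NPC at 8-point (from 0.59 nM) final concentrations. Viability by CellTiter-Glo luminescence after 48 hours.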
# [8] = qHTS of pediatric cancer cell lines to identify multiple opportunities for drug repurposing: Primary screen for BT-12 cells (AID 1347101); further: nearly all actives have a fitted effect of over 25% in size
# In short: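 Cells (500-1,000/well) rested 5 h, then received compounds for 48 h; metabolically active cells were measured by CellTiter-Glo luminescence. Final concentrations spanned up to 46 µM (MIPE, 11-point) or 0.59 nM-46 µM (NPC, 8-point) in primary screens, 11-point in follow-ups.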
# [9] = molecular target: Calcium and integrin-binding protein 1 (Homo sapiens) (UniProt Q99828); assay: Primary qHTS for Identification of Calcium Integrin Binding Protein 1 (CIB1) Competitor (AID 1508620);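 further: GST tagged CIB1 binding a fluorescein labelled alphaIIb integrin peptide tracer; top concentration of the series differs between compounds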
# Sequence of UniProt Q99828 (Q99828 whole entry, looked up): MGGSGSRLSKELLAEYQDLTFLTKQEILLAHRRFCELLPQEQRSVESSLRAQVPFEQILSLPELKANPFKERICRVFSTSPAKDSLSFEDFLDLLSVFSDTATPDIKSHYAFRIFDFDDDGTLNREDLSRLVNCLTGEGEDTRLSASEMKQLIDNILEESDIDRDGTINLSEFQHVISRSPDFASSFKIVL
# In short: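 CIB1-GST (1 uM final) and compound incubated 15 min at room temperature before adding FITC-alphaIIb peptide tracer (100 nM final). Competition for binding read by fluorescence polarization (ex 480, em 540) after another 15 min at room temperature.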
# [10] = Primary qHTS for small molecule stabilizers of the endoplasmic reticulum resident proteome: Secreted ER Calcium Modulated Protein (SERCaMP) assay (AID 1508630); details: SH-SY5Y GLuc-SERCaMP (Gaussia luciferase released on ER calcium loss) secretion, thapsigargin, luminescence; activity change, negative = inhibition: at 38.4 µM (top of the series) unless noted; further: potency means the concentration at half of the fitted maximal effect
# In short: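 GLuc-SERCaMP-expressing SH-SY5Y cells, pretreated 16 h with compound, are challenged with thapsigargin to empty ER calcium stores; after 4 h, coelenterazine is added directly to the medium and luminescence is imaged.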
# [11] = molecular target: Cytochrome P450 2D6 (Homo sapiens) (UniProt P10635); assay: Cytochrome P450 family 2 subfamily D member 6 (CYP2D6) small molecule antagonists: luciferase biochemical (cell-free) qHTS assay (AID 1645840; active means well fitted curve in the direction sought with a large enough effect in the repeat runs; inconclusive means weak or mixed curves; inactive means no such curve, though single readings can be large; an effect the other way counts as inactive or inconclusive; further: nearly all actives have a fitted effect of over 55% in size)
# Sequence of UniProt P10635 (P10635 whole entry, looked up): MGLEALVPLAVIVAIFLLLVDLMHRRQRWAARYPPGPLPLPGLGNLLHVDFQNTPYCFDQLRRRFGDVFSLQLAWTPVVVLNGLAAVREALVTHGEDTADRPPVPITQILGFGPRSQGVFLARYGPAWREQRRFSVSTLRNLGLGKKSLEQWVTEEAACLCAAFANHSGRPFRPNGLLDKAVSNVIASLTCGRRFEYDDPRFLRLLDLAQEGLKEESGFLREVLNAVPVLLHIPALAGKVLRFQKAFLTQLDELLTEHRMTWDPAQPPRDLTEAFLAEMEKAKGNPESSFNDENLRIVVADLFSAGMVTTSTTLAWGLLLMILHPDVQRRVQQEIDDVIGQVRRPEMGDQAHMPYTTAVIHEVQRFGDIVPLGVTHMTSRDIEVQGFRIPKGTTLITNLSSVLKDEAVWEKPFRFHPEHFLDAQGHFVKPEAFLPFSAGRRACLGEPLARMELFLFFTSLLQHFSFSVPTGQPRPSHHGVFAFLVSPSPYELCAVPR
# In short: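 P450-Glo luminescent screen: recombinant CYP2D6 enzyme–proluciferin substrate mix preincubated with compound 10 min at room temperature, then NADPH regeneration added for 1 h at room temperature. Detection reagent added for 20 min; luciferin light read as relative luminescence units.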
# [12] = molecular target: Cytochrome P450 2C9 (Homo sapiens) (UniProt P11712); assay: Cytochrome P450 family 2 subfamily C member 9 (CYP2C9) small molecule antagonists: luciferase biochemical (cell-free) qHTS assay (AID 1645842; active means well fitted curve in the direction sought with a large enough effect in the repeat runs; inconclusive means weak or mixed curves; inactive means no such curve, though single readings can be large; an effect the other way counts as inactive or inconclusive; further: nearly all actives have a fitted effect of over 55% in size)
# Sequence of UniProt P11712 (P11712 whole entry, looked up): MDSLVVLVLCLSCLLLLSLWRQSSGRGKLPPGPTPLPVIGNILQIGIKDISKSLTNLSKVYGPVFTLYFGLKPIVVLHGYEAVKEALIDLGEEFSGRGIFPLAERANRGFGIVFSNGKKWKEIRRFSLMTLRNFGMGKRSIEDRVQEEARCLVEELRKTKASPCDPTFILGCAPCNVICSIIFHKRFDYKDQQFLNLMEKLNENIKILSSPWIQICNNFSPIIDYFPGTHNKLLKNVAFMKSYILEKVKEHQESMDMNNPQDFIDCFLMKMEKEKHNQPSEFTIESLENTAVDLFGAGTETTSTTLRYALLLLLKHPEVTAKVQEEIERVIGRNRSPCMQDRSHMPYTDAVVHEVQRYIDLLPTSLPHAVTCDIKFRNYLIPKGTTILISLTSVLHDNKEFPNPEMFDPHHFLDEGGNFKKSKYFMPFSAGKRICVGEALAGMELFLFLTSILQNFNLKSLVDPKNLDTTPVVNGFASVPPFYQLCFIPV
# In short: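 Luminescence, after 20 min with luciferin detection reagent, reflected CYP2C9 turnover during a 1 h NADPH-driven reaction at 37C. Enzyme-substrate mix contained 0.4% bovine serum albumin and was preincubated with compound 10 min at room temperature.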
# [13] = Drug repurposing screens with cells derived from glioblastoma tumor samples (AID 1345199); details: GBM patient neurospheres viability, ATP luminescence, 48 h; Potency: tumour line A unless noted; activity, negative = cell killing: at 46 µM (top of the series), tumour line A unless noted; further: nearly all actives have a fitted effect of over 40% in size
# In short: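 Four patient lines of CD133+ GBM neurospheres were screened at several concentrations; hits were retested in those lines plus three slower-growing GBM lines, using 48-hour treatment and ATP-based viability.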
# [14] = Primary qHTS for inhibitors of nuclear receptor binding SET domain protein 2 (NSD2) in an RCH-ACV wild type WT cells (2C) (AID 1645877); details: activity change, negative = cell killing: at 44.9 µM (top of the series) unless noted; further: nearly all actives have a fitted effect of over 70% in size
# Tov112D = assay: Primary qHTS to identify gynecologic anti-cancer compounds using libraries of approved drugs and bioactive compounds (AID 1345084); details: Gynecologic cancer cell panel viability, ATPlite luminescence, 48 h; series mostly up to 57.5 µM; further: nearly all actives have a fitted effect of over 55% in size; further: potency means the concentration at half of the fitted maximal effect
# In short: as §1
# Tags describe the fitted curve by direction and shape.
compound,measurement,setting,value
CS(=O)(=O)c1ccc(-n2nc(C(F)(F)F)cc2-c2ccc(F)cc2)cc1,Potency,[1],"inconclusive: 9.2 µM [inhibitor, partial curve, poor fit]"
same,Potency,[2],inactive
same,Potency,[3],inactive
same,Potency,[4],inactive
same,Potency,CRL-7250,"inconclusive: 29.1 µM [inhibitor, single point]"
same,Potency,SKOV3,inactive
C=C1C(O)CC2C(C(=O)O)=COC(O[C@@H]3O[C@H](COC(=O)/C=C/c4ccc(O)cc4)[C@@H](O)[C@H](O)[C@H]3O)C12 (stereo partly drawn),Potency,[1],inactive
same,Potency,[5],inactive
same,Potency,[3],inactive
same,Potency,[4],"inconclusive: 1.64 µM [inhibitor, full curve]"
same,Potency,CRL-7250,"inconclusive: 15.9 µM [inhibitor, single point]"
same,Potency,SKOV3,inactive
C[C@@H]1O[C@@H](O[C@@H]2\C=C/C=C\C=C/C=C\C[C@H](C)OC(=O)/C=C\[C@H]3O[C@@H]3C[C@H](O)C[C@]3(O)C[C@@H](O)[C@@H](C(=O)O)[C@H](C2)O3)[C@H](O)[C@H](N)[C@@H]1O,Potency,[1],inactive
same,Potency,[6],"inconclusive: 14.7 µM [activator, partial curve, poor fit]"
same,max response,CRL-7250,inactive: 3.44%
same,Potency,SKOV3,"inconclusive: 14.1 µM [rising, single point]"
CC(=O)c1ccc(O[C@@H]2OC[C@@H](O)[C@H](O)[C@H]2O[C@]2(CO)O[C@H](CO)[C@@H](O)[C@@H]2O)c(O)c1,Potency,[1],inactive
same,Potency,[3],inactive
same,Potency,[4],"inconclusive: 11.6 µM [inhibitor, partial curve]"
same,outcome,CRL-7250,inactive
same,Potency,SKOV3,inactive
C[C@]1(Cn2ccnn2)[C@H](C(=O)O)N2C(=O)C[C@H]2S1(=O)=O,Potency,[1],inactive
same,Potency,[7],inactive
same,Potency,[8],inactive
same,Potency,[9],inactive
same,Potency,[10],"inconclusive: 2.24 µM [inhibitor, full curve, poor fit]"
same,Potency,[11],inactive
same,Potency,[12],inactive
same,max response,CRL-7250,inactive: -1.81%
same,Potency,[13],inactive
C[C@@H]1C(=O)O[C@H](C)[C@H]1CC(=O)[C@](C)(O)[C@H]1CC[C@@]2(O)C3=CC(=O)[C@@H]4C[C@@H](O)[C@@H](O)C[C@]4(C)C3CC[C@]12C (stereo partly drawn),Potency,[14],inactive
same,max response,CRL-7250,inconclusive: -31.4% [inhibitor]
same,Potency,SKOV3,inactive
COc1cc(O)c2c(c1)C1=C[C@H](O)[C@@H](O)C[C@]1(C)OC2=O,Potency,[4],inactive
same,Potency,CRL-7250,"inconclusive: 29.1 µM [inhibitor, single point]"
same,Potency,Tov112D,inactive
COc1ccc(CCC(=O)O)c(O[C@@H]2O[C@H](CO)[C@@H](O)[C@H](O)[C@H]2O)c1,Potency,[1],inactive
same,outcome,CRL-7250,inactive
